Assay results taken from ChEMBL document CHEMBL1201862, “PubChem BioAssay data set” (2004).
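Five concentrations, 48 hours, 96-well plates. GI50 = concentration required for 50% inhibition of growth.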 Active and inactive are the calls of the source. Rule as the data show it: active = GI50 up to about 1.1 µM and inactive = higher. Square brackets hold non-standard residues; d marks the D form. Peptide text beside a SMILES is read from it. * marks the point of attachment. ξ: configuration not given here. Bn2Val = CC(C)[C@@H](C(=O)*)N(Cc1ccccc1)Cc1ccccc1; Phe(4-NO2) = N[CH](Cc1ccc([N+](=O)[O-])cc1)C(=O)O; X17 = COc1ccc(C(N*)c2ccc(OC)cc2)cc1; NMeF = CN[CH](Cc1ccccc1)C(=O)O; Ethyl(2-NMe3+) = C[N+](C)(C)CC*; NMeD = CN[C@@H](CC(=O)O)C(=O)O; NMeN = CN[C@@H](CC(N)=O)C(=O)O; Chg = N[CH](C(=O)O)C1CCCCC1; NMeAc5c = CNC1(C(=O)O)CCCC1; NMeV = CN[CH](C(=O)O)C(C)C; ξNMeN = CNC(CC(N)=O)C(=O)O; X25 = COc1ccc(CN*)c(OC)c1; NMeA = CN[C@@H](C)C(=O)O; dNMeA = CN[C@H](C)C(=O)O; ξNMeV = CNC(C(=O)O)C(C)C; Iva = CC[C](C)(N)C(=O)O; hSer = N[CH](CCO)C(=O)O; Cbz = O=C(OCc1ccccc1)*; ξD = NC(CC(=O)O)C(=O)O; Boc = CC(C)(C)OC(=O)*; OSu = O=C1CCC(=O)N1O*; Aib = CC(C)(N)C(=O)O; ξNMeA = CNC(C)C(=O)O; ξV = CC(C)C(N)C(=O)O; Bz = O=C(c1ccccc1)*; OBn = c1ccc(CO*)cc1; X48 = C1CCC(=NO*)C1; Bn = c1ccc(C*)cc1; OtBu = CC(C)(C)O*; βAla = NCCC(=O)O

What follows are compounds tested on NCI-H322M (assay: inhibition of tumour cell growth, NCI panel, 48 h).

For `CC(=O)NC(CO)C(=O)NC(Cc1ccc(O)cc1)C(=O)NCC(N)=O` (stereo not drawn) (Ac-Ser-Tyr-Gly-NH2; configuration not given here), which GI50 is on record?
The GI50 was inactive: > 100 µM.

`COc1ccc(CNC(=O)[C@@H]2CCCN2C(=O)[C@@H](C)N(C)C(=O)[C@H](C(C)C)N(C)C(=O)[C@@H](NC(=O)[C@H](C(C)C)N(Cc2ccccc2)Cc2ccccc2)C(C)C)c(OC)c1` (Bn2Val-V[NMeV][dNMeA]P-X25) was tested. Which GI50 did it give?
The GI50 was inactive: 2.77 µM.

`CCC(C)(NC(=O)C(C)NC(=O)OC(C)(C)C)C(=O)NC(C)C(=O)NC(C)(CC)C(=O)ON=C1CCCC1` (stereo unspecified) (Boc-A[Iva]A[Iva]-X48; configuration not given here) was tested. Which GI50 did it give?
Its GI50 is inactive: > 100 µM.

With `CC(NC(=O)OC(C)(C)C)C(=O)NC(Cc1ccccc1)C(=O)NCC(=O)O` (stereo not drawn) (Boc-Ala-Phe-Gly-OH; configuration not given here) as the compound, how does the GI50 read?
Its GI50 is inactive: > 100 µM.

How did the GI50 turn out when `CC(C)(C)OC(=O)CC(NC(=O)OC(C)(C)C)C(=O)NC(CCCCNC(=O)OCc1ccccc1)C(=O)NC(C)(C)C(=O)NCCC(=O)OCc1ccccc1` (stereo unspecified) (Boc-D(OtBu)K(Cbz)[Aib][βAla]-OBn; configuration not given here) was run?
The GI50 was inactive: > 100 µM.

With `CNC(=O)CCC(NC(=O)OC(C)(C)C)C(=O)NC(Cc1ccc([N+](=O)[O-])cc1)C(=O)NCC(=O)NC` (stereo unspecified) (Boc-Glu(NHMe)-[Phe(4-NO2)]-Gly-NHMe; configuration not given here) as the compound, how does the GI50 read?
The GI50 was inactive: > 100 µM.

How did the GI50 turn out when `CSCCC(NC(=O)C(CC(C)C)NC(=O)CNC(=O)OC(C)(C)C)C(=O)N(C)C` (stereo not drawn) (Boc-Gly-Leu-Met-NMe2; configuration not given here) was run?
Its GI50 is inactive: > 100 µM.

How did the GI50 turn out when `CC(NC(=O)C1CCCN1C(=O)CNC(=O)OC(C)(C)C)C(=O)O` (stereo not drawn) (Boc-Gly-Pro-Ala-OH; configuration not given here) was run?
Its GI50 is inactive: > 100 µM.

How did the GI50 turn out when `CC(C)CC(NC(=O)OC(C)(C)C)C(=O)NC(CC(=O)OCc1ccccc1)C(N)=O` (stereo not drawn) (Boc-Leu-Asp(OBn)-NH2; configuration not given here) was run?
The GI50 was inactive: > 100 µM.

For `CC(C)CC(NC(=O)OC(C)(C)C)C(=O)NC(CC(=O)OCc1ccccc1)C(=O)OCc1ccccc1` (stereo not drawn) (Boc-Leu-Asp(OBn)-OBn; configuration not given here), which GI50 is on record?
Its GI50 is inactive: > 100 µM.

For `CCOCC(NC(=O)C(CC(C)C)NC(=O)OC(C)(C)C)C(N)=O` (stereo not drawn) (Boc-Leu-Ser(Et)-NH2; configuration not given here), which GI50 is on record?
Its GI50 is inactive: > 100 µM.

`COCCC(NC(=O)C(CC(C)C)NC(=O)OC(C)(C)C)C(N)=O` (stereo not drawn) (Boc-Leu-[hSer](Me)-NH2; configuration not given here) was tested. Which GI50 did it give?
Its GI50 is inactive: > 100 µM.

With `CC(C)CC(NC(=O)C(Cc1ccccc1)NC(=O)C(Cc1ccccc1)NC(=O)OC(C)(C)C)C(=O)OCc1ccccc1` (stereo not drawn) (Boc-Phe-Phe-Leu-OBn; configuration not given here) as the compound, how does the GI50 read?
The GI50 was inactive: > 100 µM.

How did the GI50 turn out when `CN(C(=O)C(Cc1ccccc1)NC(=O)OC(C)(C)C)C1(C(=O)NC(Cc2ccccc2)C(=O)OCc2ccccc2)CCCC1` (stereo not drawn) (Boc-Phe-[NMeAc5c]-Phe-OBn; configuration not given here) was run?
The GI50 was inactive: > 100 µM.

With `CNC(=O)C(CC(C)C)NC(=O)C(C)NC(=O)C(Cc1ccc(OCc2ccccc2)cc1)NC(=O)C(COCc1ccccc1)NC(=O)OC(C)(C)C` (stereo unspecified) (Boc-S(Bn)Y(Bn)AL-NHMe; configuration not given here) as the compound, how does the GI50 read?
The GI50 was inactive: > 100 µM.

For `CC(C)(C)OC(=O)NC(Cc1ccc(OCc2ccccc2)cc1)C(=O)NC(CCCCNC(=O)OCc1ccccc1)C(=O)NC(CCCCNC(=O)OCc1ccccc1)C(=O)ON1C(=O)CCC1=O` (stereo unspecified) (Boc-Tyr(Bn)-Lys(Cbz)-Lys(Cbz)-OSu; configuration not given here), which GI50 is on record?
The GI50 was inactive: 45.6 µM.

With `CC(C)(C)OC(=O)NC(Cc1ccc(O)cc1)C(=O)N1CCCC1C(=O)O` (stereo not drawn) (Boc-Tyr-Pro-OH; configuration not given here) as the compound, how does the GI50 read?
Its GI50 is inactive: > 100 µM.

`COC(=O)[C@H](C)N(C)C(=O)C(CC(N)=O)N(C)C(=O)[C@H](Cc1ccccc1)N(C)C(=O)[C@@H]1CCCN1C(=O)[C@H](C(C)C)N(C)C(=O)C(C(C)C)N(C)C(=O)[C@@H](NC(=O)OC(C)(C)C)C(C)C` (stereo partly specified) (Boc-V[ξNMeV][NMeV]P[NMeF][ξNMeN][NMeA]-OMe) was tested. Which GI50 did it give?
Its GI50 is inactive: > 50 µM.

Which GI50 does the source give for `COC(=O)C(C)N(C)C(=O)[C@H](CC(N)=O)N(C)C(=O)[C@@H]1CCCN1C(=O)[C@H](C(C)C)N(C)C(=O)C(C(C)C)N(C)C(=O)[C@@H](NC(=O)OC(C)(C)C)C(C)C` (stereo partly specified) (Boc-V[ξNMeV][NMeV]P[NMeN][ξNMeA]-OMe) here?
The GI50 was inactive: > 50 µM.

How did the GI50 turn out when `CC(NC(=O)C(NC(=O)OC(C)(C)C)C(C)C)C(=O)NCC(=O)O` (stereo not drawn) (Boc-Val-Ala-Gly-OH; configuration not given here) was run?
Its GI50 is inactive: > 100 µM.

For `CC(NC(=O)C(NC(=O)OC(C)(C)C)C(C)C)C(=O)NCC(=O)ON1C(=O)CCC1=O` (stereo not drawn) (Boc-Val-Ala-Gly-OSu; configuration not given here), which GI50 is on record?
Its GI50 is inactive: > 100 µM.

For `CC(C)C(NC(=O)OC(C)(C)C)C(=O)N(C)C(Cc1ccccc1)C(=O)N(C)C(C(=O)O)C(C)C` (stereo not drawn) (Boc-Val-[NMeF]-[NMeV]-OH; configuration not given here), which GI50 is on record?
The GI50 was inactive: > 100 µM.

For `CC(NC(=O)C(Cc1ccc(OC(=O)c2ccccc2)cc1)NC(=O)OC(C)(C)C)C(=O)NC(Cc1ccccc1)C(=O)NCC(N)=O` (stereo unspecified) (Boc-Y(Bz)AFG-NH2; configuration not given here), which GI50 is on record?
Its GI50 is inactive: 19.4 µM.

For `CC(NC(=O)C(Cc1ccc(OCC[N+](C)(C)C)cc1)NC(=O)OC(C)(C)C)C(=O)NC(Cc1ccccc1)C(=O)NCC(N)=O` (stereo unspecified) (Boc-Y(Ethyl(2-NMe3+))AFG-NH2; configuration not given here), which GI50 is on record?
Its GI50 is inactive: 11.3 µM.

`CC(C)(C)OC(=O)NC(CC(=O)OCc1ccccc1)C(=O)NC(C)(C)C(N)=O` (stereo unspecified) (Boc-[ξD](OBn)-[Aib]-NH2) was tested. Which GI50 did it give?
The GI50 was inactive: > 100 µM.

`COc1ccc(C(NC(=O)C[C@@H](C(=O)N(C)C(C)C(=O)O)N(C)C(=O)[C@@H]2CCCN2C(=O)[C@H](C(C)C)N(C)C(=O)C(C(C)C)N(C)C(=O)[C@H](Cc2ccccc2)N(C)C(=O)C(NC(=O)OC(C)(C)C)C(C)C)c2ccc(OC)cc2)cc1` (stereo partly specified) (Boc-[ξV][NMeF][ξNMeV][NMeV]P[NMeD](X17)[ξNMeA]-OH) was tested. Which GI50 did it give?
The GI50 was inactive: 14.8 µM.

For `COC(=O)C(C)N(C)C(=O)[C@H](CC(N)=O)N(C)C(=O)[C@@H]1CCCN1C(=O)[C@H](C(C)C)N(C)C(=O)C(C(C)C)N(C)C(=O)[C@H](Cc1ccccc1)N(C)C(=O)C(NC(=O)OC(C)(C)C)C(C)C` (stereo partly specified) (Boc-[ξV][NMeF][ξNMeV][NMeV]P[NMeN][ξNMeA]-OMe), which GI50 is on record?
Its GI50 is inactive: 20.3 µM.

`CCOC(=O)C(C)NC(=O)C(C)NC(=O)C(C)NC(=O)C(C)NC(=O)C(C)NC(=O)C(C)NC(=O)C(C)NC(=O)OCc1ccccc1` (stereo unspecified) (Cbz-AAAAAAA-OEt; configuration not given here) was tested. Which GI50 did it give?
Its GI50 is inactive: > 100 µM.

How did the GI50 turn out when `COC(=O)CNC(=O)C(C)NC(=O)C(CC(=O)OCc1ccccc1)NC(=O)OCc1ccccc1` (stereo not drawn) (Cbz-Asp(OBn)-Ala-Gly-OMe; configuration not given here) was run?
Its GI50 is inactive: > 100 µM.

For `CC(NC(=O)C(C)(C)NC(=O)C(CC(=O)OCc1ccccc1)NC(=O)OCc1ccccc1)C(N)=O` (stereo unspecified) (Cbz-Asp(OBn)-[Aib]-Ala-NH2; configuration not given here), which GI50 is on record?
The GI50 was inactive: > 100 µM.

For `COC(=O)C(NC(=O)C(CC(=O)OCc1ccccc1)NC(=O)OCc1ccccc1)C1CCCCC1` (stereo unspecified) (Cbz-Asp(OBn)-[Chg]-OMe; configuration not given here), which GI50 is on record?
Its GI50 is inactive: > 100 µM.
